Data: PubChem BioAssay AID463173 (ICCB-Longwood Screening Facility, Harvard Medical School, 2010)
Hit rate of the full screen: of about 52,000 compounds, about 4,300 (8.3%) were called active. Cut-off read from the data, not from the text of the source: active = survival mostly below about 52% (no sharp cut-off); inactive = mostly above about 56%. This is one part of the list.

System: DeltatarO mutant
Experiment: growth inhibition of S. aureus wild type versus tarO mutant, primary screen, teichoic acid synthesis inhibitors, RN4220, OD600 (AID 463173)
Conditions: OD600, 18 h, hits give low values, screened at 18.75 µg/mL (by protocol)

| SMILES | survival |
| --- | --- |
| Cc1ccc(NC(=O)CN2CCSc3ccc(S(=O)(=O)N4CCCC4)cc32)cc1C | inactive: 54% |
| CC(C)(C)C(=O)NC1(C(F)(F)F)C(=O)Nc2c1c(=O)[nH]c(=O)n2-c1ccccc1 (stereo not given) | inactive: 56% |
| CCOc1ccc(-n2nc3cc(C)c(NC(=O)c4cc(OCC)c(OCC)c(OCC)c4)cc3n2)cc1 | inactive: 137% |
| COc1cc(OC)c(NS(=O)(=O)c2cc(-c3cnc(C4CC4)o3)ccc2C)cc1Cl | inactive: 55% |
| Cc1nnc(N2CCC(C(=O)NCCc3ccccc3)CC2)c2nn(-c3ccc(Cl)cc3)c(C)c12 | inactive: 73% |
| Cc1cc2c(cc1S(=O)(=O)CCC(=O)NCCc1ccccc1)OCC(=O)N2 | inactive: 87% |
| CCC1CN(C(=O)Nc2ccc(C)c(F)c2)c2ccccc2S1 (stereo not given) | inactive: 125% |
| CCc1ccc(CNC(=O)CCc2c(C)nn(-c3ccc(N4CCCC4)nn3)c2C)cc1 | inactive: 77% |
| COc1cc(NC(=O)C2=CC(c3ccc(F)cc3)=NS(=O)(=O)N2C)cc(OC)c1OC | inactive: 73% |
| CCN(CC)c1cc(C)c2cc(NC(=O)/C=C/c3cc(OC)c(OC)c(OC)c3)ccc2n1 | inactive: 61% |
| CCN(Cc1ccccc1)C(=O)C1CCN(S(=O)(=O)c2ccc3c(c2)CCCN3C(C)=O)CC1 | inactive: 80% |
| O=C(CSc1nccn1Cc1ccc(F)cc1)Nc1nc2ccccc2s1 | inactive: 83% |
| COc1ccc(CNC(=O)CCc2c(C)nc3c(c(C)nn3-c3ccccc3)c2C)cc1 | inactive: 78% |
| CCOC(=O)c1c(C)n(-c2ccc(OC)cc2)c2ccc(OC(=O)COc3ccccc3)cc12 | inactive: 55% |
| Cc1ccc(-n2ncc3c(Nc4cccc(Cl)c4)ncnc32)c(C)c1 | inactive: 87% |
| O=C(Cn1nnnc1-c1ccccc1F)Nc1ccc(OC(F)(F)F)cc1 | inactive: 84% |
| COc1cccc(/C=C/c2nc(C#N)c(N3CCC(C(N)=O)CC3)o2)c1 | inactive: 75% |
| COc1ccc(Br)cc1S(=O)(=O)Nc1cc(-c2cn3ccccc3n2)ccc1C | active: 43% |
| Cc1ccc(C2C=C(c3ccccc3)Nc3nc(NS(=O)(=O)c4ccccc4)nn32)cc1 (stereo not given) | inactive: 68% |
| CN(Cc1ccccc1)C(=O)c1ccc(CSc2nc3cccnc3n2Cc2ccccc2F)cc1 | inactive: 105% |
| COc1ccc(NC(=O)Cn2c(=O)n(CCC(=O)NCC3CCCO3)c(=O)c3cc(OC)c(OC)cc32)cc1 (stereo not given) | inactive: 72% |
| COc1ccccc1Nc1sc(C(=O)c2ccc(F)cc2)c(N)c1S(=O)(=O)c1ccc(C)cc1 | inactive: 55% |
| CCc1cccc(-n2nnc(-c3nsc(NC(=O)c4cccc(OC)c4)n3)c2C)c1 | inactive: 89% |
| Cc1cccc(CC(=O)N2CC(=O)Nc3ccc(Br)cc3C2c2ccc(F)cc2)c1 (stereo not given) | active: 43% |
| CNC(=O)CC(=O)NC | inactive: 103% |
| Cc1cc2c(cc1S(=O)(=O)Nc1cccc(C#N)c1)OCC(=O)N2 | inactive: 93% |
| O=C(Cn1ncc2c3ccccc3n(Cc3ccccc3F)c2c1=O)NCc1ccccc1Cl | inactive: 78% |
| Nc1nc2ccccc2n1C(=O)Cc1ccccc1 | inactive: 88% |

| SMILES | survival |
| --- | --- |
| COc1ccc(-n2nc(C(=O)N3CCCCC3C)c3c4ccccc4n(C)c3c2=O)cc1Cl (stereo not given) | inactive: 87% |
| Cc1coc2c(C)c3oc(=O)c(CCC(=O)NCCc4ccccc4F)c(C)c3cc12 | inactive: 57% |
| O=C(c1cccnc1)N1CCN(CCN2C(=O)C3C4C=CC(C4)C3C2=O)CC1 (stereo not given) | inactive: 89% |
| CC(C)N(C(=O)CSc1cn(CC(=O)N2CCCCCC2)c2ccccc12)C(C)C | inactive: 68% |
| CCOC(=O)c1ccc(NC(=O)Cn2c(=O)cc(C)c3c(C)nn(-c4ccc(CC)cc4)c32)cc1 | inactive: 71% |
| COc1ccc(CNC(=O)CN(C)S(=O)(=O)c2ccc3nc(C)sc3c2)cc1 | inactive: 103% |
| COc1cccc(C(=O)Nc2ccccc2C(=O)OCc2cc(=O)n3c4c(sc3n2)CCCC4)c1 | inactive: 57% |
| Cc1nn2c(C)c(C(=O)NC(C)c3ccccc3)cnc2c1-c1ccc(F)cc1 (stereo not given) | inactive: 128% |
| O=C1CC2CCCC(CN1)N2CC(=O)NCc1ccco1 (stereo not given) | inactive: 93% |
| COc1ccc(NC(=O)c2ccco2)cc1NC(=O)C(C)(C)Oc1ccc(Cl)cc1 | active: 40% |
| CCOc1ccc(NC(=O)Cn2cnc3sc(C)c(S(=O)(=O)N4CCN(c5ccccc5OC)CC4)c3c2=O)cc1 | inactive: 64% |
| CCC(=O)N1CCCc2cc(S(=O)(=O)N3CCC(C(=O)NCc4ccc(F)cc4)CC3)ccc21 | inactive: 97% |
| O=C(c1ccc(Cl)cc1)C1CCN(C(=O)N2CCOCC2)CC1 | inactive: 66% |
| Cc1cccc(C)c1-n1ncc(C(=O)O)c1C1CCN(C(=O)OC(C)(C)C)CC1 | inactive: 88% |
| COc1ccc(-c2noc(-c3ccc(N4CCCC4)c([N+](=O)[O-])c3)n2)cc1OC | inactive: 59% |
| CCc1ccc(-n2nc(C)c3c(C(=O)N4CCN(c5ccccc5)CC4)cc(C)nc32)cc1 | inactive: 94% |
| CNC(=O)CSc1nnc(-c2ccco2)n1CC1CCCO1 (stereo not given) | inactive: 113% |
| CCOc1ccc(CNC(=O)C2CCCN(c3nnc(C)c4c(C)n(-c5ccccc5)nc34)C2)cc1 (stereo not given) | inactive: 72% |
| CCOc1cc(C2NC(=O)c3c(sc4c3CCN(C)C4)N2)ccc1OC(=O)c1ccc(Br)cc1 (stereo not given) | inactive: 63% |
| COCCCNC(=O)CSc1nc2c(sc3ccccc32)c(=O)n1CCc1ccc(OC)c(OC)c1 | active: -4% |
| O=C(Nc1ccc(C(=O)N2CCCCC2)cc1)C1CCCCC1 | inactive: 86% |
| CN(C)CCNC(=O)Cn1ccc2cc(S(=O)(=O)N3CCCCCC3)ccc21 | inactive: 82% |
| Cc1cccc(Cn2c(-c3cccc(Br)c3)nc3ccccc32)c1 | inactive: 122% |
| CCOc1ccccc1NC(=O)CCc1c(C)nn(-c2ccc(N3CCCCC3)nn2)c1C | inactive: 74% |
| COc1ccc(C(=O)CSc2ncn(-c3ccccc3)n2)cc1OC | inactive: 55% |
| COc1ccccc1C(=O)NC1(C(F)(F)F)C(=O)Nc2c1c(=O)[nH]c(=O)n2-c1ccc(F)cc1 (stereo not given) | inactive: 190% |
| Cc1cc(Cl)ccc1OCC(=O)N(Cc1ccco1)Cc1ccccc1F | inactive: 78% |
